# Test results from the supplement of paper PMC5499739.
# Over roughly 16,000 sequences, “Z-score” has its median near -0.37; the highest 2% begin near 3.2. Some of the results follow.
# Test system: RBM10 RRM1-ZnF (GST-tagged construct)
# Assay: RNAcompete 7-mer binding Z-score; higher = stronger binding preference
# Outline: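 A one-sided Z-score for enrichment, taken across the probes containing each heptamer motif, was assigned to every such motif. The RNA came from a designed pool of 241 399 sequences up to 41 nt (1.5 nmol), bound by 20 pmol of GST-tagged RBM10 constructs in 1 ml Hepes pH 7.8 buffer with glutathione Sepharose beads for 30 min at 4°C. Four 2-min washes at 4°C preceded identification of bound RNA by microarray hybridisation.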
row,Sequence,RNAcompete 7-mer binding Z-score
1,AGAUGCA,-0.0837
2,AGAUCCU,-0.961
3,GAUCAUA,-0.441
4,CUACGCA,-0.565
5,GCGCAUC,-0.324
6,GAGGUCA,0.508
7,UUAUGAA,-0.311
8,GCACUCA,-0.522
9,GAGGGCU,1.3
10,CUUAUCC,-0.876
11,GAUCACC,-0.587
12,AGGCUCC,-0.555
13,AUAGGGC,1.72
14,GGACUCU,-0.431
15,UAAGUCA,-0.223
16,CACGCGG,0.391
17,CUCAUAA,-0.808
18,CCGGAAG,0.459
19,GCUGAUC,-0.318
20,GUCAUUU,-0.61
21,UGACGAC,-0.298
22,AAAUCGA,-0.155
23,CCAGUCU,-0.694
24,GGUUCAC,0.0333
25,UUGGGAG,2.68

row,Sequence,RNAcompete 7-mer binding Z-score
1,ACCCCCG,-0.197
2,AUGUAAA,0.043
3,GCGGAGG,3.17
4,UUAGUAA,-0.373
5,UGGGUUC,1.14
6,CGAGAGU,-0.103
7,GUCCUUC,-0.701
8,GCAGGAC,0.979
9,ACAGUGA,0.202
10,AUCCUCU,-0.711
11,CAGUCAA,-0.522
12,CGCAAAU,-0.636
13,GGUGACU,1.14
14,UGGUUGA,2.02
15,CGGUGUG,1.72
16,UCCUUCG,-0.854
17,AACUUAC,-0.763
18,UGUCUCU,-0.649
19,UAAAAUG,0.0495
20,GAAAGAA,0.716
21,GCUUUGC,-0.798
22,ACUAGGU,0.439
23,CUUGGAU,-0.168
24,UAGGGUG,4.81
25,CAGGACA,0.764

row,Sequence,RNAcompete 7-mer binding Z-score
1,AGGCAGC,-0.0772
2,GAGAUUU,-0.301
3,GCCAUCG,-0.613
4,AUGCCCC,-0.639
5,GUGGAGG,3.91
6,UCUACUC,-0.808
7,AGCAUGA,-0.119
8,GAAGCCA,-0.253
9,UGAUCUC,-0.733
10,ACUCCGC,-0.545
11,AGUAUCU,-0.707
12,UGAUCUG,-0.438
13,GCCCAUU,-0.925
14,UAACUGC,-0.568
15,CCGGCGA,-0.145
16,GGCUUCG,-0.0544
17,CGGUAUC,-0.136
18,UUCUUGA,-0.886
19,UGGUCUC,-0.295
20,GGAGGGG,4.57
21,CCGUUCG,-0.649
22,AUCCGUU,-0.795
23,CUACGUC,-0.535
24,UAUAAAC,-0.493
25,ACGAUCU,-0.714

row,Sequence,RNAcompete 7-mer binding Z-score
1,CGAUAUU,-0.613
2,UACUGGG,1.12
3,UACUUGG,0.0105
4,UCUAAGG,-0.00896
5,CGAGGAA,1.43
6,GUUGUUG,0.274
7,CAAUUGG,0.962
8,CUAAGGG,1.36
9,CCCCGAC,-0.0772
10,AGGUGCA,1.45
11,GAGUCAA,0.017
12,ACCGUUC,-0.948
13,UACGGGC,1.18
14,UGAGGCG,1.15
15,AUAACAU,-0.305
16,GAUGGAA,3.36
17,CGUGGGA,2.33
18,CAGUGUC,-0.594
19,AUAUGCC,-0.763
20,UGCGUCC,-0.542
21,UCUGCAA,-0.844
22,UGGAUCU,0.0138
23,AGACAUU,-0.617
24,GGGUAUG,4.08
25,AGACACC,-0.889

row,Sequence,RNAcompete 7-mer binding Z-score
1,UAGCCCU,-0.811
2,UAGCAUG,0.231
3,CCGAUCC,-0.772
4,GCGUCCU,-0.542
5,GCGAAGA,0.43
6,AGCUGGU,1.09
7,GACCAAC,-0.451
8,AACGGGU,3.03
9,AAACAUA,-0.428
10,AUGCAAA,-0.321
11,AACAUUG,-0.227
12,ACAAGUU,-0.558
13,GAUGCCA,-0.607
14,CCGAUCG,-0.441
15,ACGAAAC,-0.298
16,ACAGCAU,-0.652
17,CCCCCGC,-0.233
18,AAACCUC,-0.802
19,GAUCAUU,-0.685
20,GCUUUCG,-0.727
21,GGUAGCG,1.67
22,CUGGUCG,0.222
23,AACAGAA,-0.0447
24,CCUGCAU,-0.776
25,AUGUAUU,-0.552

row,Sequence,RNAcompete 7-mer binding Z-score
1,CGGGGGU,3.46
2,UAUUUCC,-0.974
3,CUGGAAC,-0.0155
4,GAUUCAA,-0.474
5,CCGGACG,-0.129
6,GACCGUC,-0.886
7,CGCAGGC,-0.0414
8,GUGAAGC,0.488
9,UCCCCCU,-0.487
10,CGCACGC,-0.503
11,UCCGUUG,-0.344
12,GGAAUAG,2.52
13,GAGGAUC,0.517
14,GAAUCUA,-0.379
15,CGUAAAC,-0.428
16,CUUAGAA,-0.529
17,GUAGUCU,-0.428
18,CUUGGGA,0.966
19,AAGCGUU,-0.366
20,CAUUAAG,-0.422
